{
  "source": "patent US20260176310A1",
  "about": "(NAVIGO PROTEINS, published 2026)",
  "binders": {"B1": {"name": "Affilin®-217990 (designed binder)", "chain": "MQIFVKTLTPEWHIIGKTITLEVEPSDTIENVKAKIQDKEGIPPDQQNLAWAGKQLEDGRTLSDYNIQGGSMLMLKLHLRAA", "notes": "Ubiquitin mutein"}, "B2": {"name": "Affilin®-220164 (designed binder)", "chain": "MQIFVWTDDWKRITLEVEPSDTIENVKAKIQDKEGIPPDQQVLAWRGKQLEDGRTLSDYNIMVWPNLWLRLRAA", "notes": "Ubiquitin mutein"}, "B3": {"name": "Affilin®-217863 (designed binder)", "chain": "MQIFVWTEMHKRITLEVEPSDTIENVKAKIQDKEGIPPDQQHLTWKGKQLEDGRTLSDYNISEWPNLFLRLNLRAA", "notes": "Ubiquitin mutein"}, "B4": {"name": "Affilin®-220257 (designed binder)", "chain": "MQIFVWTITGKPITLEVEPSDTIENVKAKIQDKEGIPPDQQRLIWAGKQLEDGRTLSDYNIRSWPNLHLVLRLRAGMQIVVHTATGKTITLEVEPSDTIGHVKAKIQDTEGIPPDQQRLIWAGKQLEDGRTLSDYNIEDFPPLHLVLRLRAA", "notes": "Ubiquitin mutein"}},
  "data": [
    {"molecular_target": "T1, mCD26 expressed on HEK293-mCD26 cells (mouse, UniProt P28843 1-760)", "T1 construct": "whole, on cells", "assay": "flow cytometry on HEK293-mCD26 cells", "values": [
      {"binder": "B1", "binding result": "no binding (tested: 1 µM, 100 nM, 10 nM, or 1 nM)"},
      {"binder": "B2", "binding result": "no binding (tested: 1 µM, 100 nM, 10 nM, or 1 nM)"},
      {"binder": "B3", "binding result": "no binding (tested: 1 µM, 100 nM, 10 nM, or 1 nM)"},
      {"binder": "B4", "binding result": "no binding (tested: 1 µM, 100 nM, 10 nM, or 1 nM)"}
    ]},
    {"molecular_target": "T2, hCD26-Fc (human, UniProt P27487 29-766, limits assumed)", "T2 construct": "Off-target in SPR; the in-house construct is not described further; also called hCD26-Fc-His; not shown: Fc", "T2 sequence (P27487 29-766 limits assumed)": "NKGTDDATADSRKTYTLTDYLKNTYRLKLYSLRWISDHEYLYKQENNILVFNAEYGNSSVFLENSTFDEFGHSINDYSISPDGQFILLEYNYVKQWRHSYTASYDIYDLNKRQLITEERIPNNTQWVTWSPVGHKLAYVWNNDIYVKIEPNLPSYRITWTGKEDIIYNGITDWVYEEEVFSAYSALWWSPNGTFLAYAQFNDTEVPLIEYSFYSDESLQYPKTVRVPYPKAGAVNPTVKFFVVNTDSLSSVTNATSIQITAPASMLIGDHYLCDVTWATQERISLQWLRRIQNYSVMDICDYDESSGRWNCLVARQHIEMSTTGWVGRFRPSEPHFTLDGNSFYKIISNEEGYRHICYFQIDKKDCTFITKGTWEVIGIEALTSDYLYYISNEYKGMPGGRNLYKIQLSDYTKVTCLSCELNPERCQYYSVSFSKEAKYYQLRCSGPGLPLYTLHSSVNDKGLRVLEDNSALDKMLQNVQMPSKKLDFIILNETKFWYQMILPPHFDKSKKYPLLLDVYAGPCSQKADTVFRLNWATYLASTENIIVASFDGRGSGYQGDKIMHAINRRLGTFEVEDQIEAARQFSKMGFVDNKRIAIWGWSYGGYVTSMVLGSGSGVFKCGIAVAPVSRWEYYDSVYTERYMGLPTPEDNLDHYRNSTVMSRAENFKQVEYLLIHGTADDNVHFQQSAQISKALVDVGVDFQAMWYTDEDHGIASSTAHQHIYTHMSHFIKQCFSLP", "assay": "SPR, Fc-tagged CD26 captured on protein A", "method": "(§1) Recombinant protein A was immobilized on a High Capacity Amine sensor chip (Bruker) after NHS/EDC activation resulting in approx. 2000 RU with a Sierra SPR-32 system (Bruker). The chip was equilibrated with SPR running buffer (PBS 0.05%, Tween pH 7.3). Injection of ethanolamine after ligand immobilization was used to block unreacted NHS groups. The Fc-tagged FAP and CD26 target molecules were injected with 60 nM followed by the injection of FAP binding proteins. Upon binding, target analyte was accumulated on the surface increasing the refractive index. This change in the refractive index was measured in real time and plotted as response or resonance units versus time. The FAP binding proteins were applied to the chip in serial dilutions with a flow rate of 30 μl/min. The association was performed for 120 seconds and the dissociation for 180 seconds. After each run, the chip surface was regenerated with 30 μl regeneration buffer (10 mM glycine pH 2.0) and equilibrated with running buffer. Binding studies were carried out by the use of the Sierra SPR-32 system (Bruker); data evaluation was operated via the Sierra Analyser software, provided by the manufacturer, by the use of the Langmuir 1:1 model (RI=0). Evaluated dissociation constants (KD) were standardized against the immobilized protein and indicated.", "values": [
      {"binder": "B1", "binding result": "no binding"},
      {"binder": "B2", "binding result": "no binding"},
      {"binder": "B3", "binding result": "no binding"},
      {"binder": "B4", "binding result": "no binding"}
    ]},
    {"molecular_target": "T3, mCD26-Fc (mouse, UniProt P28843 29-760, limits assumed)", "T3 construct": "Off-target in SPR; construct not described further; also called mCD26-Fc-His; not shown: Fc", "assay": "SPR, Fc-tagged CD26 captured on protein A", "method": "as §1", "values": [
      {"binder": "B1", "binding result": "no binding"},
      {"binder": "B2", "binding result": "no binding"},
      {"binder": "B3", "binding result": "no binding"},
      {"binder": "B4", "binding result": "no binding"}
    ]},
    {"molecular_target": "T4, hFAP-Fc (human, UniProt Q12884 26-760)", "T4 construct": "extracellular domain; Made in house in Expi293-F cells; also called hFAP-Fc-His; human FAP; not shown: IgG1-Fc", "T4 sequence (looked up)": "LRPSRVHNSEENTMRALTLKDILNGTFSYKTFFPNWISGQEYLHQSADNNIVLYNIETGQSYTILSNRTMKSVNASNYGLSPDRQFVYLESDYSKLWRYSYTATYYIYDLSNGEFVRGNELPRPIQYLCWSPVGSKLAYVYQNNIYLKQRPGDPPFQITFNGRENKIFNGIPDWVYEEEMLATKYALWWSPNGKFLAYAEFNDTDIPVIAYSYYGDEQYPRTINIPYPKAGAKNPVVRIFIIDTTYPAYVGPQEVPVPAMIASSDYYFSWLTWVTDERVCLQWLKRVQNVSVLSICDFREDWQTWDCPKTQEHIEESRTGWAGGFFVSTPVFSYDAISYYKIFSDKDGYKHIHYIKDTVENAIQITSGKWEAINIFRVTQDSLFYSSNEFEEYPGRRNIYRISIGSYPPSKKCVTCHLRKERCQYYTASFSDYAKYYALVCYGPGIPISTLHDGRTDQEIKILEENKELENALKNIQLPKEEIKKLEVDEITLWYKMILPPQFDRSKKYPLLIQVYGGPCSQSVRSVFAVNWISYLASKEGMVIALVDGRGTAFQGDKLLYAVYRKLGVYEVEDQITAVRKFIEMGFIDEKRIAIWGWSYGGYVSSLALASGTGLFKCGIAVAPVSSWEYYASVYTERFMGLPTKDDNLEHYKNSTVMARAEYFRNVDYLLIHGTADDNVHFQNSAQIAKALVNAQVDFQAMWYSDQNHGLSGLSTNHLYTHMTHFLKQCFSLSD", "assay": "ELISA on coated hFAP-Fc (2.5 µg/ml); Affilin dilution series in 100% mouse serum, 0 h preincubation; detection with biotinylated anti-ubiquitin antibody and Streptavidin-HRP", "method": "(§2) High binding plates (Greiner, 781061) were immobilized with 2.5 μg/ml hFAP-Fc over night at 4° C. Dilution series of 3 µM to 0.07 PM of Affilin® proteins were incubated in 100% human serum or 100% mouse serum for 24 h at 37° C.\n(§3) ELISA-plates were washed three times with PBST (PBS+ 0.1% Tween) and blocked with 3% BSA/0.5% Tween/PBS 1 h at rt. After preincubation for 0 h or 24 h in the presence of serum the dilution series were incubated on ELISA-plates for 30 min at room temperature (rt). Wells were washed with PBST and incubated with biotinylated anti-ubiquitin-antibody (1:300) for 30 min at rt. The binding was visualized with Streptavidin-HRP (1:5.000). […] ELISA analysis confirmed the high stability of FAP binding proteins in serum.", "units": {"Kd": "nM"}, "values": [
      {"binder": "B1", "Kd": 0.73},
      {"binder": "B2", "Kd": 2.1},
      {"binder": "B4", "Kd": 0.22}
    ]},
    {"molecular_target": "T4, hFAP-Fc", "assay": "ELISA on coated hFAP-Fc (2.5 µg/ml); Affilin dilution series preincubated 24 h at 37 °C in 100% mouse serum; detection with biotinylated anti-ubiquitin antibody and Streptavidin-HRP", "method": "as §2, §3", "units": {"Kd": "nM"}, "values": [
      {"binder": "B1", "Kd": 1.13},
      {"binder": "B2", "Kd": 1.95},
      {"binder": "B4", "Kd": 0.37}
    ]}
  ]
}
